Results on 70 compounds are retold here after PubChem BioAssay AID1240 (Sanford-Burnham Center for Chemical Genomics, 2008).

Screen size: about 50,000 compounds; about 800 (1.6%) showed an effect of 50% or more. Some of the results follow.

This test addresses Bcl-2-like protein 10 (Homo sapiens) (UniProt Q9HD36). In words: TR3 peptide-Bcl-B binding displacers, biochemical primary FP assay, phenotype converters (AID 1240).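 Note: 0% = Bcl-B with tracer peptide and DMSO and 100% = tracer peptide lacking Bcl-B.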 The settings on record: GST-Bcl-B / FITC-TR3 peptide fluorescence polarization; stronger effect = higher value; compound at 3.75 mg/L. A general note: In fluorescence polarisation assays a small probe gives low polarisation when free and higher when bound to something large.
UniProt Q9HD36, sequence (Q9HD36 whole entry, looked up): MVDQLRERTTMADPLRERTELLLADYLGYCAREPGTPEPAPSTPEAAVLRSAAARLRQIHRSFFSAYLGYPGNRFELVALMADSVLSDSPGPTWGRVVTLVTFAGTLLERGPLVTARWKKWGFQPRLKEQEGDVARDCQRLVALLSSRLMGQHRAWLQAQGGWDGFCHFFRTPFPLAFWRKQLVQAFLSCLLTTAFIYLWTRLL
In the case of `COc1ccc(OCC(=O)Nc2ccc(-c3nc4ncccc4o3)cc2)cc1`, the displacement is -0.9%. As for `CC(C)c1ccc(/C=C(\NC(=O)c2ccccc2)C(=O)NCC2CCCO2)cc1` (stereo not given), the figure is 9.8%; as for `Cc1no[n+]([O-])c1COc1ccccc1/C=N/n1nnnc1N`, -19.5%; as for `O=C(c1cccs1)N1CCN(c2ccc([N+](=O)[O-])cc2F)CC1`, 0.7%. In the case of `CCOc1cc(C(=O)Nc2ccc(F)cc2F)cc(OCC)c1OCC` it was 7.2%; in that of `Cc1cccc(NC(=O)CN(c2ccc(C(C)C)cc2)S(=O)(=O)c2ccccc2)c1`, 2.4%; in that of `Cc1cc(C)cc(NC(=O)COc2cccc(Cl)c2)c1`, -11.3%. As for `CCOc1cc(/C=N/NC(=O)c2ccccn2)ccc1OC(=O)c1ccccc1`, the figure is -0.8%; as for `COc1ccc(CCNC(=O)c2ccc([N+](=O)[O-])cc2)cc1OC`, -0.9%.

For `CC1=C(C(=O)OCCc2ccccc2)C(c2ccc([N+](=O)[O-])cc2)NC(=O)N1C` (stereo not given), the displacement was determined as 0.4%. With `COc1ccc(Br)cc1C(=O)Nc1ccc(Cc2ccncc2)cc1`, the displacement was -3.3%.

Consider `Cc1ccc(NC(=O)OCC2c3ccccc3-c3ccccc32)cc1`, for which the displacement was 18.9%. As for `CC1(C)CC(=O)C(=Cc2cn(-c3ccccc3)nc2-c2ccc(Cl)cc2)C(=O)C1`, the figure is 28.2%. In the case of `COc1ccc(C2CC(=O)C3=C(C2)Nc2ccccc2NC3c2ccc(C)o2)cc1` (stereo not given) it was 0.2%; in that of `CNC(=O)C(=O)Nc1c(C)cccc1C`, 7.9%. With `COc1ccccc1CC1S/C(=N\N=C\c2cccc([N+](=O)[O-])c2)NC1=O` (stereo not given), the displacement is 12.9%. In the case of `CSc1ccccc1NC(=O)CC1Sc2ccccc2NC1=O` (stereo not given) it was 2.5%; in that of `COC(OC)C12c3ccccc3C(c3ccccc31)C1C(=O)N(Cc3ccco3)C(=O)C12` (stereo not given), 2.5%; in that of `Cc1ccc(OCc2nc(-c3ccc([N+](=O)[O-])cc3)no2)c(Br)c1`, 16.4%. For `CCOc1cc(C(=O)Nc2ccc(OC)cc2)cc(OCC)c1OCC`, the displacement was 3.7%.

Regarding `CS(=O)(=O)N(Cc1ccc(C(=O)N2CCCCCC2)cc1)c1ccccc1`, the displacement was -4.9%. With `COc1ccc(NC(=O)C(NC(=O)c2ccc(C)cc2)C23CC4CC(CC(C4)C2)C3)cc1` (stereo not given), the displacement was -3.3%. In the case of `CCCCCCCCC(=O)N/N=C/c1ccsc1C` it was 0.8%; in that of `Cc1cc(NC(=O)CSc2nnc3c4ccccc4n(C)c3n2)no1`, 3.9%. In the case of `O=C(Nc1ccc2nn(-c3ccccc3)nc2c1)c1cccc(F)c1` it was 10.1%; in that of `COc1cccc(N2C(=O)C(=O)/C(=C(\O)c3ccccc3)C2c2ccccc2)c1` (stereo not given), 4.5%; in that of `CC1=C(C)CC2C(=O)N(c3ccc(Br)cc3)C(=O)C2C1` (stereo not given), -3.8%.

Consider `Cc1cccc(NC(=O)c2ncn[nH]2)c1C`, for which the displacement was -12.9%.

`CC(C)(C)c1cc(/C=N/Nc2nnc3c(n2)[nH]c2ccccc23)cc(C(C)(C)C)c1O`: the displacement worked out at 4.8%. As for `CCOc1ccccc1N=CC1=C(O)CC(c2ccccc2)CC1=O` (stereo not given), the figure is -5%. As for `O=C1N=c2ccc(Br)cc2=C1c1sc(Nc2ccc(O)cc2)nc1O`, the figure is 16.4%; as for `Fc1ccc(/C=N/N2CCOCC2)cc1`, -8.8%. For `Cc1ccccc1N1C(=O)/C(=C\c2cccs2)SC1=S`, the displacement was 14.2%.

Take `CCc1ccc(N2C(=O)NC(=O)/C(=C\c3cc(C)n(-c4cccnc4)c3C)C2=O)cc1`: the displacement was determined as 6.3%. In the case of `C/C(=N\NC(=O)c1cc(C2CC2)[nH]n1)c1ccc(Br)cc1` it was -7.4%; in that of `CCOC(=O)c1nnc2cc(-c3ccc(C)cc3)nn2c1C`, -6%. As for `COC(=O)CN1C(=O)/C(=C\C=C\c2ccccc2)SC1=S`, the figure is 10.8%; as for `Cc1ccc(S(=O)(=O)N2CCN(CCNC(=O)C(=O)Nc3ccc(Br)cc3)CC2)cc1`, 10%.

As for `CCc1sc(NC(=O)COc2ccccc2)c(C(N)=O)c1C`, the displacement came to 8.8%. In the case of `COc1ccc(-n2nc3cc(C)c(N)cc3n2)cc1` it was 5.6%; in that of `CC(=O)N(C)c1ccc(N=Cc2c(C)[nH]c3ccccc23)cc1`, 6.4%. In the case of `O=C(COC(=O)c1cccc(N2C(=O)CCC2=O)c1)c1ccccc1` it was 10.2%. As for `Cc1cccc(OCc2nnc(N)s2)c1`, the figure is 0.8%; as for `O=C(O)CN1C(=O)/C(=N/N2C(=O)CSC2=S)c2ccccc21`, 0.4%; as for `COCCNC(=O)CN(c1ccc(OC)cc1OC)S(=O)(=O)c1ccccc1[N+](=O)[O-]`, 2.6%. Consider `O=C1C(=O)N(c2nccs2)C(c2cccs2)/C1=C(\O)c1ccc(Cl)cc1` (stereo not given), for which the displacement worked out at 17.2%. `OC12CCCCC1C1(O)CCCCC1C1(CCCCC1)O2` (stereo not given): the displacement was -4.6%.

`Cc1cnn(-c2cc(N/N=C/c3ccccc3F)ncn2)c1`: the displacement was 5.9%.

As to `CCOC(=O)c1c(N)sc(C(=O)Nc2cccc(Cl)c2)c1C`, the displacement amounted to 14.1%. As for `N/C(=N\OC(=O)C1CCCCC1)c1cccc([N+](=O)[O-])c1`, the figure is -5.1%. As for `COc1ccccc1CNS(=O)(=O)c1ccc(Cl)cc1`, the figure is -10.2%. Take `CCOC(=O)c1c(N2C(=O)C=CC2=O)sc(C)c1C`: the displacement is -24.5%. Take `CCCS(=O)(=O)c1c(S(=O)(=O)CCC)c2c3ccccc3ccn2c1C(=O)c1ccc(C)cc1`: the displacement is -7.3%. As for `O=C(N/N=C/c1ccc2ccccc2c1)c1cccc(F)c1`, the figure is -8.5%; as for `CCC(C(=O)n1nnc2ccccc21)c1ccccc1` (stereo not given), 6.8%. In the case of `C=CCN1C(=O)/C(=C/c2cccc([N+](=O)[O-])c2)C(=O)NC1=S` it was 17.1%.

`COCCOC(=O)c1c(C)oc2ccc(OC(=O)c3ccc([N+](=O)[O-])o3)cc12`: the displacement came to 10.3%. As for `CCOC(=O)CP(=O)(c1ccccc1)c1ccccc1`, the figure is 0.4%; as for `Cc1ccc(/C(O)=C2\C(=O)C(=O)N(CCCC(=O)O)C2c2ccc(C)cc2)cc1` (stereo not given), 7.8%; as for `CCOc1ccc(NC(=S)NC(=O)COc2ccccc2)cc1`, 8.9%. On to `O=c1[nH]n(Cc2ccccc2)c2ccccc12`, for which the displacement came out at 14.2%. Turning to `O=C(Nc1cc(Sc2ccccc2)cc([N+](=O)[O-])c1)c1ccc(F)c(F)c1`, the displacement amounted to 0.6%. In the case of `O=C(NC(=S)Nc1ccc(SC(F)F)cc1)c1cccs1` it was -11.4%; in that of `O=[N+]([O-])c1ccccc1N/C(=N/S(=O)(=O)c1ccc(Cl)cc1)c1ccccc1`, 17.1%. Regarding `O=C(Nc1ccccc1)Nc1ccccc1C(=O)O`, the displacement is -7.2%. As for `CN(C)c1cc(N/N=C/c2cccc([N+](=O)[O-])c2)nc(N(C)C)n1`, the figure is 3.9%; as for `O=C(O)CCCc1nc2ccccc2s1`, 13.3%. As for `Cc1c(C#N)c2ncn(Cc3ccccc3)c(=O)c2n1-c1ccccc1`, the figure is 12.4%.

As for `COc1ccc(C2CC(C(F)(F)F)n3ncc(C(=O)Nc4ccc(F)cc4F)c3N2)cc1OC` (stereo not given), the displacement is -1.7%. In the case of `Cc1ccccc1NC(=O)C(=O)NCc1ccccc1` it was 9%.
